In all, about 16,000 sequences were measured (“Z-score”: median about -0.37, highest 2% from about 3.2 on). The list shows a part of the results.
test system: RBM10 RRM1-ZnF (GST-tagged construct); experiment: RNAcompete 7-mer binding Z-score; higher = stronger binding preference
Procedure: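 RNAcompete: 20 pmol GST-tagged RBM10 RNA-binding constructs were incubated with a designed RNA pool of about 241,000 sequences up to 41 nt (1.5 nmol) on glutathione beads for 30 min at 4 °C and washed. Bound RNAs were identified by microarray hybridisation. Each RNA 7-mer is scored by a one-sided Z-score of its enrichment, computed over probes that contain the 7-mer within longer pool sequences.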

Sequence | RNAcompete 7-mer binding Z-score
CUUGGUA | 0.118
AUACAAC | -0.383
GACAGUG | 0.884
GGAUGAC | 1.51
UUACCAC | -0.565
CAGGGGG | 2.94
CUGAUCU | -0.831
UCAAACU | -0.785
UGACUUU | -0.753
GUAACCU | -0.451
CAACGUG | -0.0739
GUGUGGC | 1.62
ACCGGUA | 0.128
GUGUUAG | 0.452
UUCCAAC | -0.766
AACCUAG | -0.415
AAGAAAU | -0.337
UCUGCCG | -0.789
AGUAGGG | 4.16
CCGUACU | -0.795
GGCAGAC | 0.436
GUAAUGC | -0.162
GUACCGG | 0.553
ACGUCCC | -0.72
AGCUGAC | -0.194

Sequence | RNAcompete 7-mer binding Z-score
GAUACAU | -0.0707
CAGCGAC | -0.363
AGUUGCC | -0.435
ACCAGGU | 0.14
ACGCUGG | 0.326
UCUAGAC | -0.607
GGCUAGG | 1.72
ACGGUCC | -0.555
AAUACGC | -0.409
ACGGACU | -0.0479
UGUUGUG | 0.391
GGGCGAG | 3.37
UCUGCUC | -0.844
UGGGUAU | 2.37
AUGGCCA | -0.249
GUGCAAC | -0.106
CAUUCUG | -0.802
CAGCAUA | -0.474
GGUUUAG | 1.29
CAUAGCA | -0.415
CUUGAGG | 0.283
CGUACUA | -0.448
GAUUUUG | -0.194
CGCCCCU | -0.409
UUUUUUU | -0.834

Sequence | RNAcompete 7-mer binding Z-score
UGAGUCG | 0.000789
CGAACCU | -0.688
CCCUGUA | -0.649
GAUUCGG | 0.612
CAAUCCA | -0.743
ACUCCAC | -0.662
ACGACCC | -0.594
AUCUUCU | -0.863
ACAAUAU | -0.483
GAAUAGC | 0.056
CUUUGUG | -0.662
CGGUCAG | 0.254
CACUGUG | -0.282
GGAGAUG | 2.65
UCCCACG | -0.561
AUCCUCC | -0.694
CCAUUUC | -1.06
CCAACUG | -0.629
CACGAGA | -0.23
ACUUGUG | -0.275
AUCAAUA | -0.49
GUUACAC | -0.223
UUAAUAA | -0.545
UAAAUAA | -0.275
ACAGUUU | -0.623

Sequence | RNAcompete 7-mer binding Z-score
GCUGCCU | -0.578
AGUGUGA | 0.842
AAGGCAA | 0.894
UCAACCG | -0.828
CCUGAUG | -0.509
CGCAUGU | -0.519
UAUCAGC | -0.694
CCGAAGC | -0.61
CCAGUAU | -0.555
UGUGAAG | 0.833
CAUUCGC | -0.815
GAGACCU | -0.633
ACCCUCC | -0.74
UCCAGAU | -0.6
AUUAAUG | -0.0382
GCGUAAU | 0.115
GAUGGGU | 3.53
UAGGUAC | 0.524
AUCGUAU | -0.435
AAUCUUA | -0.824
UGAUGGG | 3.14
UAGACUU | -0.613
CAUGUGC | -0.266
GUAAUAU | -0.0122
AAGGAGC | 2.53

Sequence | RNAcompete 7-mer binding Z-score
AUCUGUU | -0.785
GGGCAUG | 1.94
GGCCUCC | -0.487
UCAUUCC | -0.902
GCUCCCG | -0.168
UUACAUA | -0.496
CCCGGCU | -0.503
UGUGCAU | -0.23
GCAUAGC | -0.324
UGCUUAU | -0.649
UGGUCGG | 1.84
UCCAUUC | -0.798
UCAUAGG | -0.022
GCGUAUA | -0.103
UUCUCGA | -0.769
GCGCCGA | -0.396
UCACGCC | -0.519
GAUCCCA | -0.587
ACUUUCU | -0.935
CGACAGG | 1
UUCAAGU | -0.565
CGGGGAU | 2.5
GGUGUUU | 1.34
CUGCGAA | -0.48
AAGAAUC | -0.366

Sequence | RNAcompete 7-mer binding Z-score
UCAAUAA | -0.617
GAAUAAG | 0.55
UCAAUGU | -0.48
GGCUAAC | 0.0365
CGUAACG | -0.23
AAAUCUG | -0.558
AUGCAUC | -0.555
GGGGGCU | 2.22
UGAAAGG | 3.05
GUUUAGU | -0.0674
AGCCAGU | -0.698
GUUUAAC | -0.386
GGAUAGC | 2.01
GCAGCUC | -0.584
CUGAAUC | -0.5
UGCAGUC | -0.379
UAAGUGG | 1.57
CGAACAG | -0.158
CUGAUAG | -0.246
AUAAUAC | -0.47
UCCCUUG | -0.73
GAUUAUU | -0.301
UUAGAAU | -0.152
ACAAAAG | -0.149
AAGGGUA | 4.59

Sequence | RNAcompete 7-mer binding Z-score
CGGGGAA | 2.71
CUGGAUU | -0.0544
UCUGUAU | -0.668
ACUUGGG | 1.34
CCCGGUC | -0.37
AAACAGA | 0.017
GGUCUCA | -0.21
GUUGUCA | -0.389
UAUGAUG | 0.332
UUCGGCG | -0.035
CGCUAUU | -0.727
CAAGUCU | -0.633
GUCCAGG | 0.163
UUCCAUU | -0.74
GUAAUGG | 2.73
GAUUCCC | -0.61
ACGUAGG | 1.46
GAUAGCC | -0.279
UAUCCCA | -0.665
CCAAGCC | -0.698
UAAUCGC | -0.604
AGCUACU | -0.61
AGGAUCG | 0.462
GCCAGUC | -0.412
AUUAGCU | -0.503

Sequence | RNAcompete 7-mer binding Z-score
ACUGCAG | -0.0285
CCUAGCA | -0.727
AAGUUGG | 1.52
UAAUGCG | -0.266
GUCCCUU | -0.785
GAACCCC | -0.327
GGGACAC | 1.25
AGUACAA | -0.158
GACUGCG | -0.201
UACAUAA | -0.519
GGGGGGG | 3.4
ACGAAAG | 0.579
CCUACGU | -0.691
UUUGAAA | -0.607
CCUCAGC | -0.808
CUACGCU | -0.672
ACGUCGC | -0.522
ACAUGUC | -0.578
UUAAACU | -0.701
GGCAGCU | 0.0203
GUAUUGA | -0.142
CGCGUAA | -0.246
AACGGGG | 3.45
CUCGCAU | -0.73
CCGUUCU | -0.798

Sequence | RNAcompete 7-mer binding Z-score
GACGCGC | -0.431
AGACGCA | -0.493
GAAGCCU | -0.711
CAGCAAU | -0.47
CAACGUU | -0.62
CAUGGUU | 0.654
UUUGGUG | 1.2
CUGUGUG | -0.149
GCGAGGA | 1.93
CGCGUUA | -0.532
CGACAGC | -0.418
CUACCCU | -0.681
CAGUCGG | 0.345
UCGCCGU | -0.73
AGAAUUC | -0.574
AAAAUAG | -0.0285
UGAAUAU | -0.327
CUAGUUG | -0.266
GGUGAAG | 3.04
GAUUUUU | -0.636
CUAGCGU | -0.662
CCACAGC | -0.591
CCUCUCC | -0.555
CUGUGGG | 1.64
UAGUUUG | -0.0804

Sequence | RNAcompete 7-mer binding Z-score
GCUGCAG | 0.358
GCUUACG | -0.483
UUAAUUC | -0.759
CGACGUG | 0.462
GAGAGGU | 1.86
CGCGCUU | -0.704
GUCUGCA | -0.571
GGAUCCC | 0.0333
UCCAAGU | -0.652
CAACGAG | -0.0382
GCCUGAG | -0.269
AUUAUUC | -0.759
UGCGCGC | 0.3
AGGCCAU | -0.503
AAACCCU | -0.876
AAACACU | -0.552
AUGUACU | -0.311
CCGCGAU | -0.698
GGCGUAG | 1.29
CCUCGUA | -0.782
ACAAGGU | 1.65
CUAUAGG | 0.358
CGAACUA | -0.711
UGGACAC | 1.06
AGUUUAA | -0.435

Sequence | RNAcompete 7-mer binding Z-score
UAUCAGA | -0.428
AGGCUCG | -0.233
AAGGUAU | 2.13
AAUAAGC | -0.37
GGCCGGU | 0.202
GAGUGUA | 0.972
AGGGGCU | 1.35
GCGUCGU | 0.069
AAGUAAA | 0.043
UACAAGU | -0.451
AGUGCCG | -0.11
UGAUGUA | 0.218
GGUGUCC | 0.794
ACUUAAC | -0.691
CCUGUCG | -0.629
UAGUCGC | -0.405
AUCUCCU | -0.772
CUAGCAG | -0.233
CUGGACA | 0.0235
UAAGGCA | 0.888
CCUGCGA | -0.532
ACUACUG | -0.428
CAAGGGC | 1.02
GGAGGGU | 3.97
GUGGGAC | 2.35

Sequence | RNAcompete 7-mer binding Z-score
UACGGCC | -0.626
ACUAAUU | -0.688
CACGCGC | -0.366
UGGCCGC | -0.126
CACGAUA | -0.347
AAGCGUA | 0.14
GACGACG | 0.163
CGCAUAU | -0.539
CCGUUAA | -0.756
GCUCACA | -0.386
CCAUCAC | -0.727
ACCCUUG | -0.779
GACCAUG | -0.698
ACGGCCC | -0.578
UAACUAU | -0.617
CGUCUAU | -0.675
CCCCCUA | -0.409
UCUUACC | -0.841
AUUCGAC | -0.707
ACAUGCA | -0.295
CUGUACA | -0.539
UAGACAU | -0.194
GGCACGU | 0.566
UAGAUGC | -0.318
GACUCAG | -0.402

Sequence | RNAcompete 7-mer binding Z-score
UUCUAUG | -0.821
GACUACU | -0.594
GCAGGCG | 1.12
GUUACUU | -0.487
AGCUCAC | -0.772
GGCGAAG | 1.96
CAUCAGA | -0.513
AAUCGGU | 0.439
UCGGGUU | 1.12
GGGGAGG | 3.64
UUGUAAC | -0.649
GUCUAUC | -0.454
UAGGAUC | 0.524
AAGUAUG | 0.667
UUACGCU | -0.5
AGAUUUC | -0.717
GGGGACC | 1.85
AUCUUUC | -0.893
AGUAACC | -0.438
UCAGUCA | -0.49
GUGGCUC | 0.345
UCAAAGG | 0.391
AUUGACC | -0.617
CCAUAAU | -0.928
UCAGCAA | -0.363

Sequence | RNAcompete 7-mer binding Z-score
AGUGGCC | 0.0268
ACUACAU | -0.711
UUGACGC | -0.422
GCUGGGA | 2.03
GUUAAGG | 2.1
GUGGUGA | 2.14
AUCGCCA | -0.717
CACACGC | -0.318
GAUGGGG | 4.43
AUUGCAU | -0.451
UUCACAU | -0.698
AUUCGUC | -0.737
GGGACCG | 1.27
ACUGGGU | 2.06
AAAGGCC | -0.035
AUAAUAU | -0.451
CAGGCAA | 0.212
UCAACGA | -0.617
UCAGCGC | -0.425
GCUCUAG | -0.464
GGUUACU | 0.277
ACCGCUA | -0.724
UCUGUGC | -0.714
GGCGUUG | 0.657
AGUGAUC | -0.116

Sequence | RNAcompete 7-mer binding Z-score
AUGAAUC | -0.21
GGUUAAU | 1.31
CAGUGGC | 0.417
UUAGCAA | -0.402
GAUGUAA | 0.413
AGGCACU | -0.123
CUCUGCC | -0.759
CAAGAAA | -0.266
UGGCGGG | 3.47
UCUCCAU | -0.834
ACCCCUG | -0.561
GCAAGCA | -0.35
CCCAAAU | -0.798
UGGCUAA | 0.244
GUUAGGG | 3.73
UCCCUAC | -0.837
UACCGAU | -0.581

— the supplement of paper PMC5499739
